Test results published in ChEMBL document CHEMBL4888484, “Replenishing the malaria drug discovery pipeline: Screening and hit evaluation of the MMV Hit Generation Library 1 (HGL1) against asexual blood stage Plasmodium falciparum ,using a nano luciferase reporter read-out” (2022).
Screen size: about 150,000 compounds; about 540 (0.36%) showed an effect of 50% or more. The list shows a part of the results.

Each compound was assayed on Plasmodium falciparum (assay: Primary screen in NF54 nanoGlo assay, in single point, at 2uM, 72h; a lower Z score goes with more inhibition). Settings: timepoint 72 hour.
Format: functional, Erythrocyte

Structure (SMILES) | % Inhibition | Z score
CC(C)CN1C(=O)CNC12CCN(S(=O)(=O)c1cccc(C(F)(F)F)c1)CC2 | -8% | 0.89
Cn1ncc(Cl)c1C(=O)Nc1cccc2ccccc12 | 2% | -0.31
CC(C)(C)OC(=O)NCCN1C(=O)[C@@H]2CCCN2C1=O | -8% | 1.31
O=C(NCCNc1cc(N2CCCC2)cnn1)Nc1ccccc1 | -8% | 1.49
O=C(N[C@H]1CCC12CCOCC2)c1c[nH]c(=O)[nH]1 | 0% | -0.01
CCN1CCN(c2cc(C(=O)O)c3cc(NS(=O)(=O)c4ccc(C)cc4)ccc3n2)CC1 | -8% | 1.4
C#CCN(CC#C)S(=O)(=O)c1ccc(OCC(F)(F)F)nc1 | -5% | 0.62
Cn1cc(CNc2cccc(CNC(=O)OC(C)(C)C)c2)cn1 | -7% | 1.04
CCCc1ncc(CNC(=O)N2CC3(CCOCC3)[C@@H]3CCC[C@@H]32)o1 | -20% | 3.7
CCN1CCN(C(=O)c2cc3occc3n2Cc2ccccc2Cl)CC1 | -3% | 0.36
O=C(CCc1ccsc1)N1CCC2(CC1)[C@H](O)C[C@@H]2OCCO | -2% | 0.46
CC(C)c1ccc(S(=O)(=O)N2CCC3(CC2)NCCN=C3NC2CCCCCC2)cc1 | -11% | 1.48
CCn1nccc1-c1cccc(-c2noc(/C=C/c3ccc(C)cc3)n2)c1 | 4% | -0.5
N[C@H]1CCN(C(=O)Cc2csc(-c3ccc(Cl)cc3Cl)n2)C1 | -7% | 1.06
CCOCCn1nc(C2CC2)nc1C1CC1 | -6% | 0.82
CC(C)n1ncc2c1C[C@@H](NC(=O)Nc1ccc(F)cc1)CC2 | -10% | 1.07
COC(=O)C1CC(O)CN1CC#Cc1ccc(F)cc1 (configuration not stated) | -6% | 0.66
c1csc(-c2cnc(CN3CCCOc4ccccc43)o2)c1 | -9% | 1.25
CC(=O)N1N=C(c2cc(-c3ccc4ccccc4c3)n[nH]2)O[C@H]1c1ccccc1C(F)(F)F | -1% | 0.22
Cc1cc(C)c(Cn2cc(Cl)c(=O)[nH]c2=O)c(C)c1 | 33% | -3.78
CCN(CC)C(=O)CN(C)CC(=O)N[C@@H](C)c1ccccc1 | -19% | 1.61
CC(C)c1nnc(CN2CCCN(c3cccc(F)c3F)CC2)n1C | 16% | -2.09

Structure (SMILES) | % Inhibition | Z score
Cc1ccc(OCC(=O)N2CCC[C@H](c3nc4ccccc4s3)C2)c(C)c1 | -18% | 2.07
O=C(NC[C@H](NC(=O)Nc1cccnc1)C1CC1)Nc1cccnc1 | -8% | 1.14
CCCc1nc(C)c(C(=O)N[C@H]2CC[C@H](CO)CC2)o1 | 3% | -0.4
CN1N=C(c2nc(COc3ccccc3)no2)CCC1=O | -2% | 0.22
CCC(=O)N(Cc1cccc(C)c1)c1ccc(CC(=O)NCC2CC2)cc1 | -5% | 0.83
O=C(c1cc(Cl)c[nH]1)N(CCc1ccccc1)Cc1ccccc1 | 0% | 0.01
C[C@@H]1CN(C(=O)c2ccc(-c3cnccn3)cc2)C[C@H](C)O1 | -12% | 2.42
FC(F)Cn1ccc(NCC2=CCCOC2)n1 | -17% | 1.86
COc1cccc(-c2nn(Cc3ccccc3F)c(-c3cccc(OC)c3)c2Br)c1 | 28% | -3.2
O=C(c1cnccn1)N1CCC(OCc2ccccn2)CC1 | -8% | 1.2
CC1(C)CN(S(=O)(=O)c2cncc(F)c2)[C@H]1C1CC1 | -1% | 0.09
CCCn1nc(C(=O)N(C2CCCCC2)C2CC2)ccc1=O | -13% | 2.42
COCCn1cncc1CNC(=O)c1cccc(-c2nccc(OC)n2)c1 | -10% | 1.51
O=C([C@@H]1CNCCN1C(=O)CCn1nnc2ccccc21)N1CCCC1 | -5% | 1
CC(CCCOc1ccccc1C(N)=O)NC(c1cc(F)ccc1F)C1CC1 (configuration not stated) | -13% | 1.48
CN(C(=O)C1CCN(CCOC[C@H]2CCCO2)CC1)c1ccccc1 | -8% | 1.21
O=C(O)Cc1cccc(NS(=O)(=O)c2cccc3c2CCCC3)c1 | 11% | -2.38
COCC1(c2noc(-c3cnn4c(C)c(C)ccc34)n2)CCOCC1 | 2% | -0.2
Cc1ccc2cccc(S(=O)(=O)NC3CC(CO)(CO)C3)c2n1 | 13% | -1.61
C[C@H](O)c1ccc(CNCc2cnc(N3CCOCC3)nc2)cc1 | -10% | 1.17
CC(C)(C)C1CCCC(NC(=O)CC2(O)CCCC2)CC1 (configuration not stated) | -8% | 1.16
Cc1n[nH]c(C)c1CCCNc1nnc(C2CC2)o1 | -7% | 1

Structure (SMILES) | % Inhibition | Z score
COCC1(NC(=O)[C@@H](c2ccccc2)n2nnnc2C)CCCC1 | -2% | 0.23
COc1ccc(-c2cc3n(n2)CCC(=O)N3Cc2ccc(C(=O)NCc3ccccc3C)cc2)cc1 | 18% | -2.13
O=C1[C@H]2CCCN2C(=O)N1C1CCN(CC(F)(F)F)C1 (some centres not stated) | -13% | 1.48
Cc1ccncc1NC(=O)NCCCN1CCCC1=O | -2% | 0.18
CCOC(=O)Cc1csc(NC(=O)C2CCC2)n1 | -1% | 0.06
Cc1cc(Cl)c(OCCCCNCCO)c(Cl)c1 | -6% | 0.74
Cc1cccc(NC(=O)c2ccsc2)n1 | -8% | 0.72
O=S(=O)(NCC[C@H](O)c1ccsc1)c1cccs1 | 3% | -0.43
CCCN1CCCN(C(=O)c2ccc(NC(=O)NC(C)C)cc2)CC1 | -20% | 3.75
O=C(c1ccno1)N1CCN(Cc2ccc3c(c2)OCO3)CC1 | -13% | 1.35
O=C(NCC1(c2ccccc2)CC1)[C@@H]1CCCN1C1CCCC1 | -2% | 0.29
O=C(NCc1cccc(COC2CCOCC2)c1)[C@@H]1COCCN1CC(F)F | -2% | 0.38
CNC(=O)CN1CCN(c2ncnc3cc4ccccc4cc23)CC1 | 10% | -1.96
CCOC(=O)c1c(S(=O)(=O)N2CCC[C@H](C(=O)NC3CCC(C)CC3)C2)c(C)n(CC)c1C (some centres not stated) | -6% | 0.51
Cc1ccccc1CN1CCCn2nc(C(=O)N[C@@H](C)C(=O)NCCN3CCOCC3)cc2C1=O | -3% | 0.36
O=C(CCn1cnc2cc(-c3noc(-c4ccsc4)n3)ccc21)N1CCCCCC1 | -18% | 2.3
C=CCN1CC(=O)N(CCCn2ccnc2)C1=O | -10% | 1.15
C[C@@H]1CNCCN1S(=O)(=O)c1cccc(C(=O)NCc2ccon2)c1 | -3% | 0.58
O=C(O)[C@H]1CN(C(=O)CCC2CCCC2)C[C@@H]1C1CC1 | -6% | 0.74
Cc1ccc(S(=O)(=O)N2CCOCCOCCOCCOCCOCC2)cc1 | -17% | 1.98
Cc1oncc1C(=O)Nc1ccc2c(c1)CCC(=O)N2 | -3% | 0.64
Cc1nonc1CN(Cc1nc(-c2cccnc2)no1)C(C)C | -4% | 0.51

Structure (SMILES) | % Inhibition | Z score
CN1C(=O)c2ccccc2O[C@H]2CN(Cc3ccccc3)C[C@H]21 | -9% | 1.36
CCC(CC)CN1C[C@]23C=C[C@H](O2)C(C(=O)N2CC(N4CCOCC4)C2)C3C1=O (some centres not stated) | -13% | 1.68
Cc1ccc([N+]2=C3CCCCCN3C[C@]2(O)c2ccc(OC(F)F)cc2)cc1 | -12% | 1.97
COCc1noc([C@H]2CN(CCc3ccccc3)CC23CCCC3)n1 | 1% | -0.16
NC(=O)c1cnc2n1CCN(C(=O)c1scc3c1OCCO3)C2 | -7% | 1.38
Cc1ccc(NC(=O)C2=CCN(Cc3ccc(F)cc3)CC2)cc1 | 3% | -0.39
CC(C)n1ccc(CNC(=O)[C@H]2CC2(C)C)n1 | -7% | 1.33
C[C@H](NC(=O)CC1=CCCCC1)c1ccc(S(C)(=O)=O)c(F)c1 | -4% | 0.68
Cc1nc([C@H](C)NC(=O)c2ccn(C)c2C)c(C)s1 | -10% | 1.39
CC(C)(C)OC(=O)N1CCNC(=O)CC1(C)C | -1% | 0.16
CC(C)(c1ccccc1)c1nnc(NC(=O)[C@@H]2C[C@H]3CC[C@@H]2O3)s1 | -4% | 0.64
CC(C)N(C(=O)c1cncc(F)c1)c1ccc(Br)cn1 | -2% | 0.29
O=S(=O)(Cc1ccccc1)N[C@H]1CCc2c(O)cccc21 | 5% | -0.73
O=c1nc(N[C@@H](Cc2ccccc2)c2ccccc2)[nH]c2[nH]ncc12 | -4% | 0.55
CNC(=O)C(C)(C)CNc1ccnc(C#N)c1 | -10% | 1.72
C[C@H](Oc1ccc(NC(=O)c2cc(C(C)(C)C)n[nH]2)cc1F)C(=O)O | -9% | 1.41
CCCn1c(C)nnc1CN(CCO)[C@@H](C)C1CCCCC1 | -2% | 0.27
Cc1n[nH]c(C)c1NC(=O)CNC1CCOC1c1ccc(Cl)cc1 (configuration not stated) | -4% | 0.64
Cc1nc(C)c(CNC[C@@](C)(CO)c2ccccc2)s1 | -40% | 4.67
Cn1nnnc1[C@H]1CCCN(C(=O)NC2CCCCC2)C1 | 5% | -0.74
